Assay results: PubChem BioAssay AID493208 (National Center for Advancing Translational Sciences (NCATS), 2011)
Among all 44,000 compounds or so, about 340 (0.77%) were called active. About 5% were inconclusive and are not listed. Calls come from the whole dose curve; as a rule, active = well fitted inhibition curve with a large enough effect; inconclusive = small, poorly fitted or top-dose-only effect; inactive = flat fitted curve, though single readings scatter. The list shows a part of the results.

Experiment: Acumen qHTS Assay for Inhibitors of the mTORC1 Signaling Pathway in MEF (Tsc2-/-, p53-/-) Cells: Sytravon;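 note: plate controls were DMSO for no effect and rapamycin for full effect; nearly all actives have a fitted effect of over 50% in size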
Details: phospho-rpS6 immunofluorescence/PI, 24 h; series mostly up to 38.3 µM; activity change, negative = inhibition: at the top concentration
Outline: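 Compounds act on Tsc2-/-, p53-/- fibroblasts carrying an empty vector for 24 h before fixation and dual staining for phospho-S6 and DNA (propidium iodide). Values are percentages of cells above a rapamycin-defined pS6/PI threshold.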

Activity change, negative = inhibition, inactive:
CCN1c2ccccc2-c2nc(SCC(=O)NCc3ccccc3)ncc2S1(=O)=O -11.4%
COC(=O)CCNC(=O)NC(CCC(C)C)c1c(-n2cccc2)sc2c1CCN(C)C2 (stereo not given) 4.03%
CCC(=O)N1CCc2cc(S(=O)(=O)NCCC(=O)Nc3cc(C)ccc3OC)ccc21 0.969%
Cc1ccc2nc(-c3ccc(O)cc3)c(Nc3ccc(Cl)cc3)n2c1 -2.16%
COc1ccccc1NC(=O)Cn1c(=O)n(CCC(=O)NCC2CCCO2)c(=O)c2cc(OC)c(OC)cc21 (stereo not given) 0%
COc1ccccc1-c1cc2nc(C)c(CCC(=O)O)c(C)n2n1 -1.99%
CCCc1cc(=O)[nH]c(SCC(=O)N2CCN(c3ccccc3OC)CC2)n1 -0.173%
COc1cc(NC(=O)c2cc3c(s2)-c2ccccc2OC3)cc(OC)c1OC -6.76%
CCCN(CCC)C(=O)Cn1c(=O)n(-c2ccc(Cl)cc2)c(=O)c2c3c(sc21)CCCCC3 2.89%
Cc1ccc(-c2nn(-c3ccc(F)cc3)c3c2cnc2cc(F)c(F)cc23)cc1 3.7%
Cc1nn(-c2ccc(N3CCCCC3)nn2)c(C)c1CCC(=O)NCc1ccc(OC(C)C)cc1 1.23%
Cc1ccccc1C(=O)Nc1ccc(OCc2cc(=O)n3ccccc3n2)cc1 -13.9%
Cc1ccc(NC(=O)Cn2cc(S(=O)(=O)N3CCCC3)c(S(=O)(=O)N3CCCC3)c2)cc1F -0.478%
Cc1ccc(C)c(S(=O)(=O)c2nnn3c2nc(Nc2ccc(C)c(C)c2)c2ccccc23)c1 -4.66%
Cc1ccc(CCNC(=O)c2c[nH]c3ccc(S(=O)(=O)Nc4ccc(C)cc4C)cc3c2=O)cc1 -14.7%
COc1cccc(C(=O)NCC(c2ccc(N(C)C)cc2)N2CCc3ccccc32)c1 (stereo not given) 2.36%
CCc1ccccc1NC(=O)Cn1nnc(-c2nc(-c3ccc(C)cc3)no2)c1N -7.23%
Cc1ccc2c(c1)sc1nc(-c3cc4ccccc4oc3=O)cn12 -2.56%
CCOC(=O)c1ccccc1NC(=O)CN1C(=O)CC(c2ccco2)Sc2ccccc21 (stereo not given) 2.89%
Cc1oc(-c2ccc(Cl)cc2)nc1Cn1c(=O)cc(C)c2c(C)nn(-c3cccc(F)c3)c21 -17.7%
Cc1ccc(C(=O)Nc2ccc(C(=O)OCc3cc(=O)n4nc(C5CC5)sc4n3)cc2)cc1 0%
CCn1cc(C(=O)N2CCN(c3ccc(F)cc3)CC2)c(=O)c2cc(S(=O)(=O)N3CCOCC3)ccc21 -16.2%
COc1ccc(NC(=O)C(=O)NCC(c2ccc3c(c2)OCO3)N2CCN(C)CC2)cc1 (stereo not given) 0.448%
CCOc1cc(CNC(=O)CCCn2c(=O)c3cccn3c3cccnc32)cc(OCC)c1OCC 0.0431%
COc1ccc(CCNC(=O)c2cc(Nc3cc(C)cc(C)c3)nc3ccccc23)cc1OC -4.1%
CC(=O)Nc1cccc(NC(=O)CSc2cn(CC(=O)N(C(C)C)C(C)C)c3ccccc23)c1 3.83%
COc1ccc(NC(=O)CN2C(=O)COc3ccc(S(=O)(=O)Nc4ccccc4)cc32)cc1OC -1.52%
O=C(COCc1cc(-c2cccs2)on1)Nc1cccc(Cl)c1Cl -3.85%
CCN(c1cccc(C)c1)S(=O)(=O)c1ccc2c(c1)NC(=O)CCS2 2.09%
Cc1c(Cl)cccc1Nc1nn2c(=O)c3ccc(C(=O)NCCc4ccccc4)cc3nc2s1 -2.95%
COc1cccc(CNC(=O)C2CCN(c3nn4c(=O)cc(C)nc4s3)CC2)c1 1.72%
Cc1cccc(N(CC(=O)NCCSCc2ccc(Cl)cc2)S(C)(=O)=O)c1C -4.77%
O=C(NC1CC(=O)N(c2ccccc2)C1)c1ccc(Br)o1 (stereo not given) 1.5%
CCOc1ccc(NC(=O)c2cc3c(n(-c4ccc(OC)cc4)c2=O)CC(C)(C)CC3=O)cc1 3.23%
CC(=O)c1cccc(NC(=O)c2cccn2-c2nnc(N3CCCCC3)s2)c1 0%
COc1ccccc1Cn1c(CNS(=O)(=O)c2ccccc2Cl)nc2cccnc21 3.27%
CCOC(=O)Cn1c(=O)oc2cc(S(=O)(=O)N3CCN(c4ccccc4F)CC3)ccc21 -0.342%
CCOC(=O)c1ccc2c(c1)N(CC(=O)Nc1ccc(C)cc1C)C(=O)c1ccccc1S2 2.93%
CCN(CC)C(=O)Cn1cc(SCC(=O)Nc2ccccc2F)c2ccccc21 -16.1%
COc1ccc(NC(=O)c2nnn(Cc3nc(-c4cc(OC)c(OC)c(OC)c4)oc3C)c2C)cc1 -9.81%
COc1ccc(-c2nc(C(N)=O)c3c(n2)n(-c2ccccc2OC)c(=O)n3C)c(OC)c1 0.251%
O=C(c1ccc2c(c1)N(Cc1ccc(Cl)cc1)C(=O)c1ccccc1S2=O)N1CCN(c2ccccc2F)CC1 (stereo not given) 2.02%
O=C(c1ccc(F)cc1)N1CCC(c2nc3ccccc3o2)CC1 -6.69%
CSc1cccc(NC(=O)C2CCN(c3ncnc4c3nc3n4CCCCC3)CC2)c1 4.22%
CCOc1ccccc1NC(=O)C(NS(=O)(=O)c1ccc2c(c1)CCC(=O)N2)c1ccccc1 (stereo not given) -0.821%
O=C(NC1CCCCCC1)c1cc2c(Cl)nc3ccccc3c2s1 0.401%
CC(C)NC(=O)CC(=O)Nc1ccc2nc3n(c(=O)c2c1)CCCCC3 7.27%
COc1ccc(CNC(=O)c2ccc3c(c2)N(C)C(=O)C2CCCCN32)cc1OC (stereo not given) 2.16%
CCOC(=O)c1ccc(NC(=O)C2=C(C)Nc3nc(SCc4ccc(Cl)cc4)nn3C2c2ccc(C)cc2)cc1 (stereo not given) 2.57%
CCCCOc1ccc(C(=O)N2CCC(c3nc4ccccc4o3)CC2)cc1 -1.05%
CCOc1ccc(CC(=O)NCCc2csc(-c3ccc(C(F)(F)F)cc3)n2)cc1 -17.1%
Cc1nn(C(=O)COc2ccccc2)c(C)c1Sc1ccccc1 -23%
CC1CCN(C(=O)CN2CCSc3ccccc32)CC1 27.2%
CC(NC(=O)c1nn(C)c2c1CSc1ccccc1-2)c1ccccc1 (stereo not given) -8.98%
O=C(Nc1ccc(SC(F)F)cc1)c1cc(-c2cccs2)on1 -1.26%
COc1ccc(OC)c(NC(=O)CSc2nc(-c3ccccc3C)nc3cc(=O)[nH]n23)c1 -1.34%
COC(=O)c1sc2cccc(F)c2c1S(=O)(=O)N1CCN(c2ccccc2OC)CC1 -17.5%
Cc1ccc(-c2cc(NC(=O)C(C)Oc3ccc(C)c(C)c3)on2)cc1 (stereo not given) -2.04%
O=C(NCCc1ccccc1)c1ccc2c(c1)CCN2S(=O)(=O)c1ccc(Br)cc1 -1.46%
CC(=O)c1cccc(NC(=O)CCCN2C(=O)COc3ccc(C)cc32)c1 -10.1%
CCOc1ccc(C(=O)Nc2nnc(S(=O)(=O)N(CC)c3ccccc3C)s2)cc1 2.56%
CCNc1nc2c(c(=O)[nH]c(=O)n2C)n1CC(O)COc1ccc(Cl)cc1Cl (stereo not given) -26.6%
COc1cc(OC)cc(C(=O)N2CCC(c3ccncc3)CC2)c1 -7.98%
O=C(CCS(=O)(=O)c1cccs1)Nc1ccc(C(=O)Nc2cccc(Cl)c2)cc1 -5.15%
O=C(Cc1ccccc1)Nc1c(C(=O)N2CCN(c3ccc(F)cc3)CC2)oc2ccccc12 -12.2%
COc1ccc(CNc2ccc3cc(S(=O)(=O)N4CCCCC4)ccc3n2)cc1 -4.85%
Cc1ccc(C)c(NC(=O)CN2C(=O)CSc3nc(C)cc(C)c32)c1 -4.04%
Cc1ccc(CNC(=O)CN(c2ccc(C(C)C)cc2)S(=O)(=O)c2c(C)n[nH]c2C)cc1 7.1%
COc1cccc(NC(=O)CN2CCCN(S(=O)(=O)c3ccc(Br)cc3)CC2)c1 2.19%
COc1ccc(Cn2ccnc2SCC(=O)Nc2ccc(C)cc2C)cc1 2.27%
CC(C)(C)CC(=O)Nc1nnc2n1CCS2 -9.32%
CCCC(=O)NCC(c1ccc2c(c1)OCO2)N1CCOCC1 (stereo not given) 3.77%
O=C(COc1ccc(Cl)cc1)Nc1ccccc1C(=O)OCc1cc(=O)n2ccsc2n1 0%
COc1ccccc1CNC(=O)CN1C(=O)CSc2c1c(C)nn2-c1ccccc1 -21.1%
CC(=O)c1ccc(NS(=O)(=O)c2cc3[nH]c(=O)c(=O)[nH]c3cc2C)cc1 0.0432%
Cc1ccc(C)c(N2CCN(C(=O)Cn3ncc4c(=O)oc5ccc(C)cc5c43)CC2)c1 -1.3%
COc1ccc(S(=O)(=O)NCCc2nnc3ccc(SCC(=O)Nc4ccc(C(F)(F)F)cc4)nn23)cc1 0.101%
CCc1ccc(CSc2nc(-c3ccccc3OC)nc3c2Cc2c(CO)cnc(C)c2O3)cc1 3.83%
CCCn1c(=N)c(C(=O)NCc2cccnc2)cc2c(=O)n3cc(C)ccc3nc21 5.1%
COc1cccc(/C=C/c2nc(C#N)c(N3CCCCC3)o2)c1 -0.67%
O=C(c1cnc2cc(-c3ccccc3)nn2c1)c1cc([N+](=O)[O-])ccc1O -4.69%
O=C(C1CCCN(S(=O)(=O)c2cccc3nonc23)C1)N1CCN(c2cccc(Cl)c2)CC1 (stereo not given) -6.3%
Cc1ccccc1Cn1nc(C)c(NC(=O)c2cc(-c3ccc(F)cc3)on2)c1C 2.58%
CCOc1ccccc1CNc1ncnc2c1nc1n2CCCC1 -9.18%
CSc1ccc(CCNC(=O)CCc2c(C)nc3c(-c4ccccc4)c(C)nn3c2C)cc1 -18.7%
COC(=O)c1ccc2c(=O)n(CCCCCC(=O)NCc3ccccc3)c(=O)[nH]c2c1 -0.834%
Cc1cccc(-n2c3c(cc(-c4nc(-c5ccc(Cl)cc5)cs4)c2=O)C(=O)CC(C)(C)C3)c1 4.69%
O=C(CN1CCSc2ccccc21)N1CCN(c2ccccc2)CC1 6.01%
CCn1cc(C2N3CC4(CC)CN2CC(CC)(C3)C4=O)c2ccccc21 (stereo not given) 2.99%
CCOC(=O)c1c(NC(=O)/C=C/c2ccc(OC)c(OC)c2)sc(C(C)=O)c1C -4%
CCc1ccc(NC(=O)c2cc(-c3cccs3)on2)cc1 -3.06%
CCOC(=O)c1cnc2cc(C(F)(F)F)ccc2c1N1CCN(c2ccc(F)cc2)CC1 -2.06%
COc1ccccc1CNC(=O)C1CCCN(c2nn3cc(-c4ccc(F)cc4)nc3s2)C1 (stereo not given) 0.133%
CCOc1ccc(CCNC(=O)CS(=O)Cc2nc(-c3ccc(C)cc3)oc2C)cc1OCC (stereo not given) 0.116%
COC(=O)c1ccccc1NC(=O)CSc1nc(-c2ccccc2)cc(C(F)(F)F)n1 -3.5%
